Data taken from PubChem BioAssay AID1508642 (National Center for Advancing Translational Sciences (NCATS), 2021).
Hit rate of the full screen: of about 43,000 compounds, about 200 (0.47%) were called active. Inconclusive results (about 12%) are left out. Calls follow the shape of the dose curve; as a rule, active = well fitted cell-killing curve with a large enough effect; inconclusive = small, poorly fitted or top-dose-only effect, or effect the other way; inactive = flat fitted curve, though single readings scatter. This is one part of the list.

assay: Cell viability qHTS assay in S16 Pmp22-F2sN cells; details: S16 Pmp22-F2sN Schwann cells (luciferase reporters placed in the Pmp22 gene) viability, CellTiter-Glo, 24 h; series mostly up to 57.5 µM; activity change, negative = cytotoxicity: at the top concentration; also: nearly all actives have a fitted effect of over 65% in size
Procedure, shortened: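 Seed 500-1,000 S16 Pmp22-F2sN cells per well in phenol-red-free DMEM with 10% heat-inactivated FBS; pin-add 23 nL compound; incubate 24 h at 37C; add CellTiter-Glo, wait 15 min protected from light; read luminescence.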
% is scaled to controls: 0 for no effect and ±100 for the full control effect.

Structure (SMILES) | activity change, negative = cytotoxicity
Cc1ccc(Cn2c(C)c3cnn(CC(=O)N4CCN(c5ccc(F)cc5)CC4)c(=O)c3c2C)cc1 | inactive: -28.3%
COc1cc(OC)c(NC(=O)c2cn(C)c(=O)c3cc(OC)c(OC)cc23)cc1Cl | inactive: -6.93%
O=C(/C=C/c1ccccc1)N1CCN(Cc2cc(=O)n3nc(-c4ccccc4Cl)sc3n2)CC1 | inactive: -28.7%
CC(NC(=O)c1cc(-c2ccc(Cl)cc2)on1)c1ccccc1 (stereo not given) | inactive: -19%
CCc1cccc(NC(=O)c2cccc3c2C(=O)N(C2CCCCC2)C3)c1 | inactive: -2.67%
COc1ccc(Nc2ncnc3c2nc2n3CCCC2)cc1Cl | inactive: -23.7%
O=C(NCC(c1cccnc1)N1CCc2ccccc21)C(=O)Nc1ccccc1F (stereo not given) | inactive: -19.3%
CCOC(=O)c1nnn(CC(=O)NC(=O)Nc2ccc(F)cc2)c1C(=O)OCC | inactive: 5.66%
COc1ccc(S(=O)(=O)NCC(c2ccco2)N2CCN(c3ccccc3F)CC2)cc1C (stereo not given) | inactive: -5.48%
COc1cc(/C=C/c2nc3cc(Cl)ccc3c(=O)n2-c2ccc(C)cc2C)cc(OC)c1OC | inactive: 5.15%
CSc1ccc(NC(=O)Cn2nnnc2-c2ccccc2F)cc1 | inactive: -0.707%
O=C(O)c1c2c(nc3ccc(S(=O)(=O)N4CCC(C(=O)NCc5ccc(Cl)cc5)CC4)cc13)CCCC2 | inactive: 10.8%
CCOC(=O)c1c(C)oc2nc(C)nc(N3CCN(c4cccc(C)c4C)CC3)c12 | inactive: 7.97%
Cc1cccc(OCCSc2nc3ccccc3n2CC(=O)N2CCOCC2)c1C | inactive: 3.94%
CCOc1ccc(S(=O)(=O)Nc2ccc(OC)c(Cl)c2)c2cccnc12 | inactive: -10%
CCN1C(=O)c2ccccc2S(=O)c2ccc(C(=O)NCc3ccccc3OC)cc21 (stereo not given) | inactive: 6.1%
CCOC(=O)N1CCN(Cc2nc3cc(NC(=O)c4ccc([N+](=O)[O-])cc4)ccc3n2C(C)C)CC1 | inactive: -24.8%
Cc1ccc(NC(=O)C2CCCN(S(=O)(=O)c3c(C)nn(C)c3C)C2)c(C)c1 (stereo not given) | inactive: 12%
O=C(NC1(C(F)(F)F)C(=O)Nc2c1c(=O)[nH]c(=O)n2-c1ccccc1)c1ccccc1 (stereo not given) | inactive: 6.75%
CCOc1ccc(C(=O)NCc2nc3cccnc3n2Cc2cccc(OC)c2)cc1 | inactive: 7.36%
CCCN(CCC)C(=O)Cn1c(SCc2cccc(C(F)(F)F)c2)nc2cccnc21 | inactive: -25.8%
CCOc1ccccc1CNC(=O)c1ccc(NC(=O)N2CC(C)Sc3ccccc32)cc1 (stereo not given) | inactive: -28.5%
COc1ccc(OC)c(CNC(=O)CN(c2ccc(C)cc2)S(=O)(=O)N(C)C)c1 | inactive: 17.9%
Cc1cccc(NC(=O)N2CCN(C)c3ncccc32)c1C | inactive: -3.49%

Structure (SMILES) | activity change, negative = cytotoxicity
N#Cc1ccccc1NC(=O)C(=O)NCCc1csc2nc(-c3cccc(F)c3)nn12 | inactive: 7.8%
CCOC(=O)C1CCN(c2c(C(=O)c3ccc(OC)cc3)cnc3ccccc23)CC1 | inactive: -6.31%
CSCC[C@@H](C(=O)Nc1cccc(F)c1)N1Cc2ccccc2C1=O | inactive: -5.3%
O=C(CSc1nccn1C1CCCC1)Nc1cccc(F)c1 | inactive: 1.68%
CCOCCc1nn2c(=O)cc(COC(=O)Cc3ccccc3)nc2s1 | inactive: 6.31%
CCCN(C(=O)Cn1ncc2c1-c1ccccc1OC2)c1cccc(C)c1 | inactive: 12.4%
Cc1cccc(N2CCN(c3ccc(C(=O)O)cc3NC(=O)c3cccc(Cl)c3)CC2C)c1 (stereo not given) | inactive: -28.6%
CCc1ccc(-c2nc(SCC(=O)NCC3CCCO3)c(-c3ccc(C)cc3)[nH]2)cc1 (stereo not given) | inactive: 5.54%
Cc1cccc(C)c1NC(=O)Cn1c(=O)n(CCCS(=O)(=O)C2CCCCC2)c(=O)c2ccccc21 | inactive: 0.375%
Cc1ccc(-n2c(=O)c3ccc(C(=O)NCc4ccco4)cc3n(CC(=O)Nc3ccccc3C(F)(F)F)c2=O)cc1 | inactive: 10.1%
CN(C(=O)Cn1cnc2onc(-c3ccc(F)cc3)c2c1=O)c1ccccc1Cl | inactive: 6.27%
Cc1cc(C)cc(-n2c(C)cc(C(=O)C(=O)Nc3nnc(C)s3)c2C)c1 | inactive: -11.1%
CCOC(=O)c1cc2c(=O)n3ccccc3nc2n(Cc2ccco2)c1=NC(=O)c1ccc(C)c(C)c1 | inactive: -3.22%
CN(c1ccccc1)S(=O)(=O)c1nnc(NC(=O)COc2ccccc2)s1 | inactive: -16.8%
O=C(Cn1c(=O)oc2cc(S(=O)(=O)N3CCCCCC3)ccc21)Nc1ccc(F)cc1F | inactive: 10.3%
O=C(Nc1cc2c(cc1C(=O)c1cccc(Br)c1)OCCO2)c1ccccc1F | inactive: 7.19%
COc1ccccc1NC(=O)CSc1nc(-c2ccc(C)cc2)nc2c1Cc1c(CO)cnc(C)c1O2 | inactive: -2.78%
Cc1nn2c(=O)cc(COC(=O)c3ccc(NC(=O)c4cccc(Br)c4)cc3)nc2s1 | inactive: -1.84%
CCOC(=O)c1c(S(=O)(=O)NCC(=O)N2CCN(c3cc(C)ccc3C)CC2)c(C)n(C)c1C | inactive: -4.51%
Cc1cccc(NC(=O)CCN2CCN(c3ccccc3F)CC2)c1 | inactive: 1.1%
COC(=O)c1ccccc1NC(=O)Cn1c(=O)n(CCC(=O)NCc2ccccc2OC)c(=O)c2ccccc21 | inactive: 23.6%
Cc1ccc(Cl)cc1NC(=O)CN1C(=O)CSc2ccc(S(=O)(=O)N3CCCC3)cc21 | inactive: 0.344%
CC(C)c1ccc(CNc2nc(-c3ccco3)nn2C(=O)c2ccc([N+](=O)[O-])cc2)cc1 | inactive: 2.75%
CSCCC(NS(=O)(=O)c1ccc2c(c1)oc(=O)n2C)C(=O)Nc1ccc(Cl)cc1 (stereo not given) | inactive: 1.59%

Structure (SMILES) | activity change, negative = cytotoxicity
COCc1cc(C)nc2sc3c(c12)NC(c1ccc(O)c(OC)c1)N(c1ccccc1)C3=O (stereo not given) | inactive: -0.786%
COc1ccc(OCC(=O)N(Cc2cccs2)c2ccc(OC)cc2)cc1 | inactive: 0.919%
C=Cc1ccc(Cn2c(=O)cc(C)c3c(C)nn(-c4ccccc4)c32)cc1 | inactive: 1.4%
O=C(NC1(C(F)(F)F)C(=O)Nc2c1c(=O)[nH]c(=O)n2-c1ccccc1)c1ccccc1Cl (stereo not given) | inactive: 0.521%
COc1cc(OC)cc(-c2cc3nc(C)c(CCC(=O)Nc4ccc(C(C)=O)cc4)c(C)n3n2)c1 | inactive: 2.63%
CCOCCCNc1nc2ccccc2n2c(CC)nnc12 | inactive: -8.43%
CCn1c(C)c(C)c2cc(C(=O)NCc3ccc(OC(C)C)cc3)ccc21 | inactive: -9.03%
COc1cc2c(C(=O)N3CCN(c4cccc(C(F)(F)F)c4)CC3)cn(CC(C)C)c(=O)c2cc1OC | inactive: -26.9%
COc1ccc(NC(=O)Cn2c(=O)n(Cc3ccc4c(c3)OCO4)c(=O)c3ccc(C(=O)NC4CCCCC4)cc32)cc1 | inactive: 3.38%
Cc1c(Cl)cccc1NC(=O)CSc1nc2ncccc2o1 | inactive: -3.11%
CC1Cn2c(C(=O)NCc3cccc(Br)c3)cc3cccc(c32)S1 (stereo not given) | inactive: -1.17%
Cc1ccc(C(=O)O)cc1NC1(c2ccccc2)C(=O)c2ccccc2C1=O | inactive: -10.4%
Cc1cccc(-c2nc3c(cnn3-c3ccccc3)c(=O)n2-c2ccc(Br)cc2)c1 | inactive: -5.96%
COc1ccc2oc(-c3ccc(C)c(NC(=O)c4ccc(-c5ccccc5[N+](=O)[O-])o4)c3)nc2c1 | inactive: 0.0831%
O=C(CCSCc1cccc(Cl)c1)NCc1ccc(F)cc1Cl | inactive: 1.19%
CCc1ccccc1NC(=O)c1sc2nc(C)cc(COC)c2c1N | inactive: -7.63%
Cc1ccc2[nH]c(CSc3nnc(NC(=O)c4ccccc4F)s3)cc(=O)c2c1 | inactive: -19.3%
COc1ccccc1CNC(=O)C1CCCN(c2nnc(C)c3c(C)n(-c4ccccc4)nc23)C1 (stereo not given) | inactive: 0.422%
Cc1nn(CC(=O)N2CCN(c3cccc(C(F)(F)F)c3)CC2)c(=O)c2cc3sccc3n12 | inactive: 4.16%
Cc1ccc(S(=O)(=O)c2[nH]c(-c3ccccc3)nc2SCCC(=O)O)cc1 | inactive: -0.921%
Cc1cccc(CCNC(=O)c2ccc(CSCc3cccc(Cl)c3)o2)c1 | inactive: -3.17%
Cc1cccc(N(Cc2cc3ccccc3[nH]c2=O)C(=O)c2cccc(Cl)c2)c1 | inactive: 3.41%
CCCn1c(=N)n(CC(O)COc2ccccc2OC)c2ccccc21 (stereo not given) | inactive: -9.74%
Cc1ccc(N2CC(NC(=O)CCc3ccccc3)CC2=O)cc1C (stereo not given) | inactive: 5.39%

Structure (SMILES) | activity change, negative = cytotoxicity
CCn1ccc2c(OCC(=O)NCc3ccccc3)cccc2c1=O | inactive: -6.93%
O=[N+]([O-])c1cc(-c2nc(-c3ccco3)no2)ccc1NCc1ccccc1 | inactive: 2%
Cc1ccc(NC(=O)CC2Nc3cc(C)c(C)cc3NC2=O)c(C)c1 (stereo not given) | inactive: -15.7%
CCOc1ccccc1NC(=O)C1=C(C)Nc2ncnn2C1c1ccc(NC(C)=O)cc1 (stereo not given) | inactive: 1.34%
Cc1ccc(Cc2nc3ccccc3nc2SCC(=O)N2CCN(c3ccccc3)CC2)cc1 | inactive: -6.62%
COc1ccc(S(=O)(=O)c2nnn(-c3ccccc3F)c2C)cc1 | inactive: 3.9%
Cc1nn(CCCC(=O)NCc2ccc(OC(C)C)cc2)c(=O)c2c1sc1ccccc12 | inactive: 9.35%
CCc1ccc(Sc2cc(C(=O)O)c3ccccc3n2)cc1 | inactive: 0.822%
Cc1ccc2[nH]cc(C(c3ccccc3)c3ccc(C)s3)c2c1 (stereo not given) | inactive: -26.6%
CCC(C)NC(=O)CCc1c(C)nc2c(c(C)nn2-c2ccc(C)cc2)c1C (stereo not given) | inactive: -6.15%
CCOc1cccc(CC(=O)NCc2ccc3c(c2)CCN3C(C)=O)c1OCC | inactive: -3.29%
COCC(C)NC(=O)c1cc2c(=O)n3cccc(C)c3nc2s1 (stereo not given) | inactive: -1.92%
COc1ccc(NC(=O)CSc2nc3ccccc3n2CC(=O)N2CCCCC2C)cc1 (stereo not given) | inactive: -8.63%
COc1ccc(-c2onc(C)c2C)cc1S(=O)(=O)NCc1ccc(C)o1 | inactive: -13.1%
COc1ccc(CCCc2nnc(SCC(=O)Nc3cccc(C)c3)o2)cc1 | inactive: 1.06%
Cc1nn(CCC(=O)NCc2ccc(Cl)cc2)c(=O)c2nn(-c3ccccc3)c(C)c12 | inactive: -18.7%
CC(CNC(=O)C1CCN(C(=O)N2CCOc3ccc(Cl)cc32)CC1)c1ccccc1 (stereo not given) | inactive: -4.83%
CCN(c1ccc(Cl)cc1)S(=O)(=O)c1nnc(NC(=O)c2ccccc2C)s1 | inactive: -5.4%
CCOc1ccc(NC(=O)CN2C(=O)CC(C)Sc3ccccc32)cc1 (stereo not given) | inactive: 8.38%
O=C(NCc1ccccc1)C1CCCN(S(=O)(=O)c2cccc3nsnc23)C1 (stereo not given) | inactive: 1.68%
CC(C)(C)OC(=O)N1CCC(c2c(C(=O)Nc3ccc4c(c3)OCCO4)cnn2-c2ccc(Cl)cc2)CC1 | inactive: -7.29%
O=C1CN(C(=O)COc2ccc(Cl)cc2)C(c2ccccc2)c2cc(Br)ccc2N1 (stereo not given) | inactive: -23.5%
COc1ccc(CCn2c3c(c(=O)[nH]c2=O)C(NC(=O)c2ccccc2F)(C(F)(F)F)C(=O)N3)cc1OC (stereo not given) | inactive: 6.72%
